Assay results from the supplement of paper PMC11417369.
± gives the standard deviation of the averaged measurements. This is one part of the list.

tested on: PfAP2-EXP AP2 domain (GST-tagged); assay: gcPBM binding intensity (ln(normalized median fluorescence intensity)); higher = stronger DNA binding
How it was run: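 GST-tagged P. falciparum DNA-binding domains produced in E. coli were incubated for 1 h on an Agilent 4 × 180k array of primer-extended double-stranded 36-bp intergenic genomic probes with negative controls. Binding intensity is the highest Masliner-normalised natural-log median intensity across replicate spots of either probe orientation, with bound protein detected by Alexa488 anti-GST antibody at 488 nm.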

“TGTTCTTTATTTTATTGTACTTTTAAAATTCCTTTA [XGTACX_site8058]” and “AAAAAAAAAAGACATGCATACGCTAATTTTTAGTTG [TGCATGCA_site300]” are within error of each other in “gcPBM binding intensity (ln)” value: 8.95 ± 0.33 for the first, 8.36 ± 0.49 for the second.

First: ATATATTTTTAAAAAAATTAAGAATTTTACATCTCC [CACACA_negctrl_site1450]
Second: TATTATAATAAGAAGTGTACGTGTTTTTATAAATAA [XGTACX_site575]
The “gcPBM binding intensity (ln)” value of the first is lower: 8.09 ± 0.38 for the first, 8.82 ± 0.085 for the second.

“TATAAAAAAAACGAAAAAAAAAAAAAAAATACAGGA [TGCATGCA_negctrl_site585]” and “ATTATGTTTCTTTTTTTTTTTAAAGGATGTCTTTTT [CACACA_negctrl_site974]” are within error of each other in “gcPBM binding intensity (ln)” value: 8.54 ± 0.61 for the first, 8.47 ± 0.54 for the second.

Compared with “TTTAAGCAAAAACACACACACATATATATATATATA [CACACA_site349]”, “TATAAATATATATACACACACATATATATTATATAT [CACACA_site596]” is lower in “gcPBM binding intensity (ln)” value: 10.1 ± 0.41 for the first, 8.31 ± 0.33 for the second.

Compared with “AAAAAATGATAATATACACACTTATGGGAGAGCGCA [CACACA_site5398]”, “AAGTTATATTTGTGTACACATAATTTTATACTAATA [CACACA_site5553]” is higher in “gcPBM binding intensity (ln)” value: 8.275 ± 0.078 for the first, 8.83 ± 0.014 for the second.

“AATATTAAACAAAATAAATATATAAAAAATAAATAA [GTGCAC_negctrl_site93]” and “TATTTAATACGGACTCATAAATCTTAATAAAAAAAA [CACACA_negctrl_site434]” are within error of each other in “gcPBM binding intensity (ln)” value: 8.54 ± 0.33 for the first, 8.27 ± 0.33 for the second.

“AAAAATAAAATGGACACACACGTTCAAATTTAGATT [CACACA_site5186]” and “CACGCACAGATATATACACACTTTTATTTAAATAAC [CACACA_site6852]” are within error of each other in “gcPBM binding intensity (ln)” value: 8.6 ± 0.56 for the first, 8.7 ± 0.33 for the second.

“GGATGCACACAAAAGGGTACATAAGAAAAAAACAGG [XGTACX_site8570]” and “TTCACTAATAAATACGCACACATATACAGATATATA [CACACA_site4887]” are within error of each other in “gcPBM binding intensity (ln)” value: 8.89 ± 0.47 for the first, 8.57 ± 0.16 for the second.

First: AAATATATATATAGTTGTACATATATCGTATATATT [XGTACX_site7867]
Second: TGGGTAAACAAACACACACACATATATATATATATA [CACACA_site1992]
The “gcPBM binding intensity (ln)” value of the first is lower: 8.39 ± 0.3 for the first, 10.1 ± 0.49 for the second.

“AGTTGTTACGAACATACACACGAACATAGACACGGA [CACACA_site8102]” and “ATGAGTGTAATAATATGTACATAACCTACATAATTT [XGTACX_site852]” are within error of each other in “gcPBM binding intensity (ln)” value: 9.01 ± 0.47 for the first, 8.57 ± 0.41 for the second.

“TTATTTAAATAATATGTACACACATTTAAAAAATTA [CACACA_site8912]” and “AAAAAAAAATATATAAACACACATATTTATATACAC [GTGCAC_negctrl_site545]” are within error of each other in “gcPBM binding intensity (ln)” value: 8.35 ± 0.3 for the first, 8.36 ± 0.31 for the second.

“GCACACATATAATAATGTACATATATATATTTAAAA [XGTACX_site4561]” and “TATTGATTATTTGAATGTACTTATTATATTAAATAT [XGTACX_site1304]” are within error of each other in “gcPBM binding intensity (ln)” value: 8.68 ± 0.26 for the first, 8.34 ± 0.24 for the second.

“ACACGCACATATATATAAATATATATATATATAAAT [CACACA_negctrl_site1781]” and “AATAAAAATATTTTTACATGCAAATGTTATATATTT [TGCATGCA_site1056]” are within error of each other in “gcPBM binding intensity (ln)” value: 8.4 ± 0.47 for the first, 8.9 ± 0.22 for the second.

Compared with “ATTCTACACAGACATACACACATATATATATATATA [CACACA_site5826]”, “AAAAAAAATTATTATGAACACACATTTATTATATTC [CACACA_site8443]” is lower in “gcPBM binding intensity (ln)” value: 10.2 ± 0.4 for the first, 8.09 ± 0.3 for the second.

“TATATATGTTTATGTAGTACTATATATCCCTTTCTT [XGTACX_site7049]” and “TAATATGATCTTAATAGTACTTTATTAATAATAACC [XGTACX_site1953]” are within error of each other in “gcPBM binding intensity (ln)” value: 8.66 ± 0.52 for the first, 8.33 ± 0.35 for the second.

“TAGAATAAGATAGATATACACACCATTATAAATATA [CACACA_site2500]” and “AAAAAAAAAAGACACACACACAAAAAAAGATATATA [CACACA_site6645]” are within error of each other in “gcPBM binding intensity (ln)” value: 8.53 ± 0.38 for the first, 8.51 ± 0.65 for the second.

“TTACAAAATAAGAGGCACAAACACAAAAAAAAATAA [CACACA_negctrl_site574]” and “ATAAAAATATTACGCACACACAAACTTATTCATTAT [CACACA_site1969]” are within error of each other in “gcPBM binding intensity (ln)” value: 8.68 ± 0.52 for the first, 8.56 ± 0.31 for the second.

Going from “GTAACTTTATTATACTGTACTATTATATAAGCACAC [XGTACX_site2859]” to “TTGTTCAAACAAAAAATAAAATAATTGAAAATAAAA [CACACA_negctrl_site812]”, the “gcPBM binding intensity (ln)” value falls from 9.01 ± 0.042 to 8.29 ± 0.33.

First: ATTACAATATATACGTGTACATATTACCACCGCTAC [XGTACX_site2308]
Second: TGTAAAAAATTTAACACACACATATATATATATATA [CACACA_site2585]
The “gcPBM binding intensity (ln)” value of the first is lower: 8.93 ± 0.33 for the first, 10.1 ± 0.41 for the second.

“AATGTTTATTTTGTTTGTACATAAAATGAATAAAAT [XGTACX_site1456]” and “TATATATATTTATGCACACAAAATATATTATAGAAT [CACACA_site3740]” are within error of each other in “gcPBM binding intensity (ln)” value: 8.47 ± 0.29 for the first, 8.45 ± 0.35 for the second.

Going from “GTTATATATTTTTATGCATGCATTTTTAAATATATA [TGCATGCA_site175]” to “TTATTCCTTTTCCTTTTTTTTTTTTAACCAAAAAAA [CACACA_negctrl_site309]”, the “gcPBM binding intensity (ln)” value falls from 10.1 ± 0.56 to 8.56 ± 0.38.

In the case of “TTTATATATATAAATATGTAGATAACAATATTCTGA [TGCATGCA_negctrl_site554]”, the “gcPBM binding intensity (ln)” value is reported as 8.16 ± 0.44.
